From US11365205B2 (Aurigene Discovery Technologies Limited, priority 2018, dated 2022) come the findings set out here.

What is called pIC50 is the negative decadic logarithm of the IC50, by convention in mol/L.

pIC50: −log10 of the molar value.

For the experiment, the target named is PRMT5/MEP50 Complex (Homo sapiens (Human), UniProt O14744). Kind of experiment: PRMT5 inhibition based on TR-FRET assay. The experiment is classed as biochemical. As to conditions: 32 nM PRMT5:MEP50, 50 nM Histone-H4 peptide, 1 μM SAM. The source says: PRMT5 Inhibition Based on TR-FRET Assay:
Protein arginine methyltransferase 5 (PRMT5) is a type II arginine methyltransferase that catalyze mono- and symmetric demethylation on arginine residues of histone or non-histone proteins in presence of S-adenosylmethionine (AdoMet or SAM) a cofactor responsible for donating the methyl group. PRMT5 is reported to be overexpressed in several human cancers. To identify compounds that inhibit the PRMT5 and decrease its activity, a TR-FRET based assay has been established. Time-resolved fluorescence resonance energy transfer (TR-FRET) HTS assays are homogeneous proximity assays where the interaction of two dye-labeled binding partners is detected by the energy transfer between a donor and an acceptor dye and the subsequent light emission by the acceptor dye. PRMT5 catalyzes Histone H4 peptide which is biotin tagged to the Lysine amino acid at carboxyl end, in presence of S-adenosyl-1-methionine (SAM) to methylate the peptide. The antibody specific to mono methylated H4 peptide (H4R3) with Ig conjugate binds to the methylated peptide, indirectly binding to the Europium lanthanide. […]
The compound dilutions were prepared as 7.5% DMSO stock solutions in assay buffer. […] The plates were then read on Victor-3 with Excitation at 340 nm and Emissions collected at 615 and 665 nm in TR-FRET protocol. […]
A general note: TR-FRET usually uses a lanthanide donor and a delayed reading to cut background.

Sequence of UniProt O14744 (O14744 whole entry): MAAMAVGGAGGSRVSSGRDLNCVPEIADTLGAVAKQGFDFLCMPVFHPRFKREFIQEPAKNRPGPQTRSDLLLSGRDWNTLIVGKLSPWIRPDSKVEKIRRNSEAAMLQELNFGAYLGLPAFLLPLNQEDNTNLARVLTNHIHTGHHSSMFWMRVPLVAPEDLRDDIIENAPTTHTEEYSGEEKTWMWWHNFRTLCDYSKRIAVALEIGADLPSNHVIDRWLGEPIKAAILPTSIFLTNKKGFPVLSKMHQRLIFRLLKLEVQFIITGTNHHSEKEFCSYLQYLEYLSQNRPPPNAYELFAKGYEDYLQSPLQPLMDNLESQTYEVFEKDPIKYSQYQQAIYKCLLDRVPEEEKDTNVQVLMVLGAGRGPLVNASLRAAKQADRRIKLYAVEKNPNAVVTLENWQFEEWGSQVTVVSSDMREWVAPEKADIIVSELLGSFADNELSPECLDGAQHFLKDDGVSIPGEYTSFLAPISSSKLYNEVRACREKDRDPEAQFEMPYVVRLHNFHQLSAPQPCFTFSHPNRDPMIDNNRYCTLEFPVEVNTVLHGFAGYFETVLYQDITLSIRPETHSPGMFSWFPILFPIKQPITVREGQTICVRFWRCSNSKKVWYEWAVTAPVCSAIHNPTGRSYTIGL
Sequence of UniProt O14744 (Q9BQA1 whole entry partner): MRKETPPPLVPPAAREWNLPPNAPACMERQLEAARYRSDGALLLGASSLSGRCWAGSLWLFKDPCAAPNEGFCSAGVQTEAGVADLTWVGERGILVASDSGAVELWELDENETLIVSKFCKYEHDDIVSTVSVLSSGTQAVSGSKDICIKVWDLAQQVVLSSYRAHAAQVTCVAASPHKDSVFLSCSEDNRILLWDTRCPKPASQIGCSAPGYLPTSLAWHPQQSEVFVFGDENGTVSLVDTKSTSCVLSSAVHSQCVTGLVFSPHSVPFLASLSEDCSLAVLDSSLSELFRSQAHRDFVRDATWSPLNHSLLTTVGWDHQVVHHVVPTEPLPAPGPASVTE

For `N#Cc1ccc(Cn2ccn(CC(O)CN3CCc4ccccc4C3)c2=O)cc1` (single isomer, unassigned) [Example 82b, 4-((3-(3-(3,4-dihydroisoquinolin-2(1H)-yl)-2-hydroxypropyl)-2-oxo-2,3-dihydro-1H-imidazol-1-yl)methyl)benzonitrile], the pIC50 is 6.92.
With `CC1(C)CN(Cc2ccc(C#N)cc2)C(=O)N1CC(O)CN1CCc2ccccc2C1` (centres unmarked) [Example 2], the negative-log IC50 (pIC50) was 7.52.
